Reference: PubChem BioAssay AID504339 (National Center for Advancing Translational Sciences (NCATS), 2011)
Screen size: about 390,000 compounds; about 17,000 (4.4%) were called active. Inconclusive results, whose numbers are uncertain, are shown with a selection of clear calls. Calls follow the shape of the dose curve; as a rule, active = well fitted inhibition curve with a large enough effect; inconclusive = small, poorly fitted or top-dose-only effect; inactive = no such curve, though single readings can be large or run the other way. Where the call is inconclusive, the potency comes from a doubtful curve fit.

Molecular target: Lysine-specific demethylase 4A (Homo sapiens) (UniProt O75164)
Assay: qHTS Assay for Inhibitors of JMJD2A-Tudor Domain; also: nearly all actives have a fitted effect of over 50% in size
Settings: AlphaScreen JMJD2A-Tudor / H3K4me3 peptide binding; activity change, negative = inhibition: at 114 µM (top of the series)
% is scaled to controls: 0 for no effect and ±100 for the full control effect; potency is read from the fitted curve at half-maximal effect; tags tell the direction and shape of the fitted curve.

Chain of UniProt O75164 (O75164 whole entry, looked up, the tested form may be a part): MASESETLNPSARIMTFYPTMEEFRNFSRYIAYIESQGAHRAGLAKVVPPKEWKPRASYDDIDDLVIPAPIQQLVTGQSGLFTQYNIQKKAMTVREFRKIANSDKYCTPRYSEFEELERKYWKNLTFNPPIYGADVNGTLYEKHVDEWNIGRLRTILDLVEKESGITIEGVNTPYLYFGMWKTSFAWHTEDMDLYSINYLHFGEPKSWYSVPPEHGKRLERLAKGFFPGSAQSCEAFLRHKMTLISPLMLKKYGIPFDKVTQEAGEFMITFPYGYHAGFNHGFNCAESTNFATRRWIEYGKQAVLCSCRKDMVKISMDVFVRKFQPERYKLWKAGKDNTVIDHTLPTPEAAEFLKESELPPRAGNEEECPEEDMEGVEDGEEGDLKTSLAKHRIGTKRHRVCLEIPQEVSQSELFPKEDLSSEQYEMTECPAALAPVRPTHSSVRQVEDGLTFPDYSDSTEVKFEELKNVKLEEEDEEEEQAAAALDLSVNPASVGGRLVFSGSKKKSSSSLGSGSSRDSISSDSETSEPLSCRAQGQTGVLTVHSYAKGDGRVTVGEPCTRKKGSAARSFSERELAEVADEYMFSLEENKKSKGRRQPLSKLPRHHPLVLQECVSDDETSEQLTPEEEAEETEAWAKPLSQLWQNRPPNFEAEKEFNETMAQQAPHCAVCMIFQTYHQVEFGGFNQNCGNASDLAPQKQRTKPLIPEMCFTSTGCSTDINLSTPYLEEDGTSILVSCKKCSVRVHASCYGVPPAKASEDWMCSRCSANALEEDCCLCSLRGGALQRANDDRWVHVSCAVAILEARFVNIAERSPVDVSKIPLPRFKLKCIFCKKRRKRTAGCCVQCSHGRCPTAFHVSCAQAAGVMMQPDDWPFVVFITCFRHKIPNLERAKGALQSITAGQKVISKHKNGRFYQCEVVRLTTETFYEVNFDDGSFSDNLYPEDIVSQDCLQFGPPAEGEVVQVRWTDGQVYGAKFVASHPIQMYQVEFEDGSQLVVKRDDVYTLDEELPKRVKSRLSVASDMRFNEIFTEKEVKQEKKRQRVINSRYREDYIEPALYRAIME

Potency, active:
COC1=C(OC)C(=O)C(Sc2ccc3ccccc3c2)=CC1=O 3.55 µM
CCCS(=O)(=O)Nc1ccc(Nc2c3ccccc3nc3ccccc23)c(OC)c1 39.8 µM
C#CCOCCOCCOCCNc1nc(N2CCN(C(=O)[C@H](CCCCN)n3cc(CN)nn3)CC2)nc(N2CCN(C(=O)[C@H](CC(N)=O)n3cc(C(N)[C@H](C)CC)nn3)CC2)n1 (some centres not stated) 39.8 µM
CCN(CC)c1ccc(NC(=O)CN2CCN(CC(=O)Nc3ccc(Cl)cc3)CC2)cc1 44.7 µM
COc1ccc(N2CCN(C(CNS(=O)(=O)c3ccccc3)c3ccccc3)CC2)cc1 (configuration not stated) 15.8 µM
Cc1c(C)n(Cc2ccc(Cl)cc2)c2ccc(C(=O)NCCCN3CCOCC3)cc12 89.1 µM
Cc1ccc(S(=O)(=O)N2CCN(Cc3ccccc3Cl)CC2)cc1 5.01 µM
O=C(O)/C=C/c1ccc(OCc2cccc(F)c2)cc1 14.1 µM

Potency, inconclusive:
Nc1nc(N)c(N=O)c(OCC2CCCCC2)n1 79.4 µM [inhibitor, single point]
COc1ccc(NC(=O)c2ccc(-c3ccc([N+](=O)[O-])cc3)o2)cc1OC 28.2 µM [inhibitor, partial curve]
O=C(CCOc1ccccc1)N1CCN(c2ccc(O)cc2)CC1 15.8 µM [inhibitor, full curve, poor fit]
O=Cc1ccc(OCc2cn3ccccc3n2)cc1 56.2 µM [inhibitor, partial curve, poor fit]
O=C(NC(=S)Nc1ccc(CN2CCOCC2)cc1)c1ccc2c(c1)OCCO2 56.2 µM [inhibitor, partial curve, poor fit]
c1coc(CNc2c3c(nc4ccccc24)CCC3)c1 44.7 µM [inhibitor, full curve, poor fit]
Cn1c(=O)c([N+](=O)[O-])c(Oc2ccccc2)c2ccccc21 63.1 µM [inhibitor, partial curve]
Cc1cccc(CC(=O)NCC(=O)NCc2cc(=O)n(C)c(=O)n2C)c1 12.6 µM [inhibitor, partial curve, poor fit]
COC(=O)c1ccc(C2C(C(=O)Nc3ccc(C)cc3C)=C(C)Nc3ncnn32)cc1 (configuration not stated) 100 µM [inhibitor, partial curve]
Cc1ccc(C2CC(=O)NC(SCC(=O)OCc3ccccc3)=C2C#N)o1 (configuration not stated) 89.1 µM [inhibitor, single point]
Cc1ccc(-c2csc(NC(=O)CSc3nc(C)cc(=O)[nH]3)n2)cc1 56.2 µM [inhibitor, partial curve]
N#Cc1nc(-c2cccs2)oc1NCCN1CCOCC1 89.1 µM [inhibitor, partial curve, poor fit]
CC(=O)Nc1ccc(NC(=O)C2(C)CC2(Cl)Cl)cc1 (configuration not stated) 12.6 µM [inhibitor, partial curve]
Cc1nc(C)c(C(=O)N/N=C/c2cc(Br)ccc2O)s1 50.1 µM [inhibitor, partial curve]
O=C(CN1CCOCC1)NNc1c2ccccc2nc2ccccc12 22.4 µM [inhibitor, single point]
Fc1ccc(CN2CCCCCC2)c(F)c1 1.78 µM [inhibitor, full curve, poor fit]
Cc1ccc(-c2csc3ncnc(N4CCN(c5ccccc5O)CC4)c23)cc1 79.4 µM [inhibitor, partial curve]
Cc1ccc(NC(=O)c2ccc(NC(=O)CCS(=O)(=O)c3cccs3)cc2)cc1F 22.4 µM [inhibitor, full curve]
Cc1ccccc1Nc1c(-c2ccc(N3CCOCC3)cc2)nc2ccc(Br)cn12 2.82 µM [inhibitor, full curve]
CCCCCCC(=O)Nc1nc(C)c(-c2csc(Nc3cc(Cl)ccc3C)n2)s1 50.1 µM [inhibitor, partial curve]
CNc1nc(N)c([N+](=O)[O-])c(Nc2cccc(Cl)c2)n1 50.1 µM [inhibitor, partial curve, poor fit]
O=C(Cn1cnc2ccccc2c1=O)OCC(=O)c1ccc2c(c1)OCCO2 22.4 µM [inhibitor, partial curve]
O=C(Nc1ccncc1)c1ccc(Cl)c(S(=O)(=O)N2CCc3ccccc32)c1 31.6 µM [inhibitor, full curve]
Cc1ccc(S(=O)(=O)Oc2ccc(C)cc2/C=N/N=C2\NC(=O)C(C)S2)cc1 (configuration not stated) 50.1 µM [inhibitor, partial curve]
CCOc1ccc(-n2c(C)nc(O)c2N=Nc2ccccc2)cc1 2.51 µM [inhibitor, full curve, poor fit]
COC(=O)Cc1c(C)c2ccc3c(c2oc1=O)CN(Cc1ccccc1Cl)CO3 100 µM [inhibitor, partial curve, poor fit]

Potency, inactive:
O=c1oc(-c2ccc([N+](=O)[O-])cc2)nc2ccccc12
Cc1c2c(c(C)n1C)C(C(=O)NC1CCCCC1)N(Cc1ccccc1)C2=O (configuration not stated)
Cc1ccccc1NC(=O)c1cccc(NC(=O)c2ccco2)c1
CCOc1ccc(N2C(=O)/C(=C/c3ccco3)N(C)C2=S)cc1
CN(C)CCCNC(=O)/C(=C/c1ccc(-c2ccc([N+](=O)[O-])cc2)o1)NC(=O)c1ccccc1
CC(C)CN(C(=O)CSc1nnc2c(Cl)cc(C(F)(F)F)cn12)C1CCS(=O)(=O)C1 (configuration not stated)

Activity change, negative = inhibition, inconclusive:
O=C(Nc1cc(S(=O)(=O)N2CCOCC2)ccc1N1CCCC1)c1ccc(Cl)cc1 -64.1% [inhibitor]

Activity change, negative = inhibition, inactive:
C=CCn1c(COc2ccccc2)nnc1SCc1ccc(C#N)cc1 -9.59% [at 11.4 µM]
